Measured values published in patent US6096504A, “Maize glutathione-S-transferase enzymes” (E. I. du Pont Nemours and Company, priority 1999, dated 2000).

Key:
Type in all cases: biochemical
Conditions in all cases: purified enzyme, 0.4 mM electrophilic substrate, 4 mM glutathione, 0.1 M MOPS pH 7.0
[1] = GST conjugation of 1,2-epoxy-3-(p-nitrophenoxy)propane with glutathione (HPLC)
Source text: (§1) The GST enzymes, expressed and purified as described in Example 5 were screened for their ability to metabolize a variety of substrates. Substrates tested included the three herbicide electrophilic substrates chlorimuron ethyl, alachlor, and Atrazine, and four model electrophilic substrates, 1-chloro-2,4-dinitrobenzene (CDNB), ethacrynic acid, t-stilbene oxide, and 1,2-epoxy-3-(p-nitrophenoxy)propane. The enzymes were purified as described in Example 5 and used in the following assay.
(§2) For each enzyme, the conjugation reaction with each electrophilic substrate was performed by incubating 0.3 to 30 μg enzyme in 0.1 M MOPS (pH 7.0) containing 0.4 mM of the electrophilic substrate. The reaction was inititated by the addition of glutathione to a final concentration of 4 mM. After 5 to 30 min, the reaction was terminated by the addition of 45 μL acetonitrile, microfuged for 10 min to remove precipitated protein, and then the supernatent was removed and added to 65 μl of water. This sample was chromatographed on a Zorbax C8 reverse phase HPLC column (3 μm particle size, 6.2 mm×8 cm) using a combination of linear gradients (flow=1.5 mL/min) of 1% H3 PO4 in water (solvent A) and 1% H3 PO4 in acetonitrile. […] Quantitation of metabolites were based on an assumption that the extinction coefficient of the conjugate was identical to that of the electrophilic substrate.

[2] = GST conjugation of alachlor with glutathione (HPLC)
Source text: as §1, §2

[3] = GST conjugation of chlorimuron ethyl with glutathione (HPLC)
Source text: as §1, §2

[4] = GST conjugation of t-stilbene oxide with glutathione (HPLC)
Source text: as §1, §2

[5] = GST conjugation of CDNB with glutathione (HPLC)
Source text: as §1, §2

[6] = GST conjugation of ethacrynic acid with glutathione (HPLC)
Source text: as §1, §2

[7] = GST conjugation of Atrazine with glutathione (HPLC)
Source text: as §1, §2

B1: cs1.pk0059.e2: maize class III GST enzyme encoded by cDNA clone, expressed in E. coli (protein)
chain: MADGGELQLLGSWYSPYVIRAKVALGLKGLSYEFVEEDLSRKSDLLLKLNPVHRKVPVLVHGGRPVCESLVILQYVDETWAGTGTPLLPADAYDRAMARFWAAYVDDKFYKEWNRLFWSTTAEKAAEALGVVVPVVETLEQAFRECSKGKPSSAATPSGSWTSRSGASWCGSGWWTRRPA
With B1 the “activity of enzyme with 1,2-epoxy-3-(p-nitrophenoxy)propane” value [1] was 43 nmol/min/mg, the “activity of enzyme with Alachlor” value [2] was 8 nmol/min/mg and the “activity of enzyme with Chlorimuron-Ethyl” value [3] was 0.1 nmol/min/mg. For the same molecule, the “activity of enzyme with t-Stilbene Oxide” value [4] was 1.25 nmol/min/mg, the “activity of enzyme with CDNB” value [5] was 1348 nmol/min/mg and the “activity of enzyme with Ethacrynic Acid” value [6] was 20 nmol/min/mg. The “activity of enzyme with Atrazine” value [7] was 0.02 nmol/min/mg.
